The structures appear in SMILES notation. Certain results were filed several times, with different values. This is not the full list of results. The source may hold further records. Values that stand side by side read as repeated measurements (runs, samples, wells or individuals). What stands in brackets tells the records apart. Letters count within one entry.

In assay [1] the target is T1, GPR73 (prokineticin 1 receptor) (Homo sapiens, UniProt Q8TCW9).
T1 construct: expressed in transfected cells; host or cells: HEK 293
T1 sequence (Q8TCW9 whole entry, species assumed): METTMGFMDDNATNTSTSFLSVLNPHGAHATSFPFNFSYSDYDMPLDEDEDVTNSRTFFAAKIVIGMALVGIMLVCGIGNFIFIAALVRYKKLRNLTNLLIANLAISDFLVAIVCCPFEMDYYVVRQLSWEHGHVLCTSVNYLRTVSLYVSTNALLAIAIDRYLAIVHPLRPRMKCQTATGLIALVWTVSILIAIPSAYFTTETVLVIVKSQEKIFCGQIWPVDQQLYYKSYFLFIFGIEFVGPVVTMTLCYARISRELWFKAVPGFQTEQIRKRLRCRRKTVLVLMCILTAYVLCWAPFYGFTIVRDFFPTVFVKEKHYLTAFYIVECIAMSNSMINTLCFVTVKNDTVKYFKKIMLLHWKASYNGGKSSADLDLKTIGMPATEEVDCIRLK
The experiment in a line: PK1 functional assay: Ca2+ mobilization screening for PK1 antagonists on the FLIPR. Format: cell-based. Particulars: HEK 293 GPR73 cells; PK1 ligand preparation at its EC50; multiple values = multiple testing; read-out: Ca^2+ Mobilization IC50. The method, then:
At a time of 24 h prior to running the assay, in cell culture media (DMEM containing high Glucose and L-glutamine, 10% FBS, 1% Pen/Streptomycin, 1% Sodium Pyruvate, 20 mM HEPES, Zeocin 200 mg/L), 100 μL of 1.3*10^6/ml HEK 293 GPR73 (prokineticin 1 receptor) expressing cells were plated in a 96 well poly-d-lysine coated plate (Costar), and incubated at 37 C and 5% CO2. On the day in which the assay was run, the media was removed and 200 μL of 5× Calcium Plus Dye (Molecular Devices) which was previously resuspended with 200 mL of assay buffer [HBSS w/Ca^2+ and Mg^2+ w/o phenol red, 20 mM HEPES, 0.1% BSA, 10 mL probenecid (710 mg probenecid in 5 mL of 1N NaOH, to which was then added 5 mL HBSS containing 20 mM HEPES)] was added to each well of the 96-well plate. The plate was incubated at 37 C and 5% CO2 for 30 min in dark. The plate was removed and allowed to reach RT for 15 min in the dark. The assay was then run on the FLIPR. In Brief: base line read for 1 min, compound added (25 μL) and incubated for 4 min, 15 seconds, PK1 ligand preparation added (25 μL) for a final concentration of a previously determined EC50 and fluorescence was counted for 1 min, 45 seconds. Baseline is described as the amount of relative fluorescence read when buffer alone is added to cells. Baseline was subtracted from all wells. Percent of control was calculated as follows: […]

The next assay has as its target PK1 receptor (Rattus norvegicus, UniProt Q8R416). Particulars: test compound 1 μM basolateral, 15 min; PK1 10 and 100 nM cumulative. As to the method: (§1) Methodology. The basic methodology for Ussing-type ion flux chambers used in these studies was the same as that described in detail above with the following modifications to the experimental protocol. […] The responses to two sequential EFS were used to gauge tissue viability and comparability of the responses of individual tissues from each rat and between rats. Tissue conductance was measured at periodic intervals as changes in the amplitudes of brief short-circuit current responses evoked by application of 1 mV amplitude bi-polar pulses from a pulse generator using Ohm's Law. Three to four tissues from each rat were studied. The tissues from a given animal were grouped and assigned accordingly: one control tissue which received only vehicle followed by two consecutive doses of PK-1 ligand added in a cumulative fashion to the basolateral surface of the tissue; the remaining two to three tissues from the same animal were assigned to be exposed to a given PK-1 receptor antagonist (e.g., 3-4 tissues from 1 rat: Control, Antagonist 1, Antagonist2, and/or Antagonist3). Test compound was added to the basolateral tissue side reservoir at a final concentration of 1 μM and allowed a 15 minute incubation period prior to challenge with the PK1 peptide. […]

In assay [2] the test system is pro-secretory effect of carbachol. Further details: species or system rat. Particulars: two ascending cumulative carbachol concentrations, serosal side. As to the method: as §1

Sequence of PK1 receptor (Q8R416 whole entry): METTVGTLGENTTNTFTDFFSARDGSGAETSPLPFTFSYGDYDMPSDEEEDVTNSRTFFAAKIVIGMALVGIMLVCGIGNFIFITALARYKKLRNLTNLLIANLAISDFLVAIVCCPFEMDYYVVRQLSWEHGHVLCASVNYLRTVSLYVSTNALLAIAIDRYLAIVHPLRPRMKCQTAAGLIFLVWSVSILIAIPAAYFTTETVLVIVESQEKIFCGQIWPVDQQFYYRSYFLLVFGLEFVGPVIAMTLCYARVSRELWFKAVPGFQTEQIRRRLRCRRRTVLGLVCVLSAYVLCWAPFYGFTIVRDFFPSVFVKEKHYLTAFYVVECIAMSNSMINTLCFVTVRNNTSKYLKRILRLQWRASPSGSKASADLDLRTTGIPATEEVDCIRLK

As usually defined, the IC50 is the point on the concentration scale where inhibition reaches its midpoint. Take `COc1ccc(Cn2c(NCc3cnc(C)cc3C)cc(=O)n(Cc3ccc(OC)cc3)c2=O)cc1` [Cpd 61]: in assay [1], the IC50 is 36 nM and 697 nM [one cell].
Regarding `COc1ccc(Cn2c(NCc3cccnc3N)nc(=O)n(Cc3ccc(OC)cc3)c2=O)cc1` [Cpd 3, 6-[(2-Amino-pyridin-3-ylmethyl)-amino]-1,3-bis-(4-methoxy-benzyl)-1H-[1,3,5]triazine-2,4-dione], on PK1 receptor, the “suppression of the PK1 evoked increase in Isc” value was “suppresses [passage A] and significant surmountable antagonism [passage B]”. In addition, the “suppression of the pro-secretory effect of carbachol (unrelated secretagogue)” value in assay [2] is “without inhibiting [passage A] and failed to suppress [passage B]”.
For the compound `COc1cc(F)c(Cn2c(=O)nc(NCc3cnc(C)cc3C)n(Cc3ccc(OC(F)F)cc3)c2=O)c(F)c1` [Cpd 195], the IC50 in assay [1] is 374 nM and > 10 µM [one cell].

Values taken from patent publication US20080287445A1, “Prokineticin 2 receptor antagonists” (priority 2005, published 2008).
